The full ranking holds about 110,000 compounds; the median of “z-score” is about -0.1, and the highest 2% start at about 2. Some of the results follow. Calls of active or inactive are those of the source.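 The calls were made as follows: active = z-score in the third read window above 3 or below -3; inactive = the rest.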
These compounds were tested against Metabotropic glutamate receptor 8 (Rattus norvegicus) (UniProt P70579) (assay: rat mGluR8 modulators via GIRK flux, primary screen, cell-based, thallium flux, HTS (AID 488969)). Settings: HEK293 rat mGluR8, GIRK (G protein-gated inwardly rectifying potassium channel) thallium flux, FluoZin2; at 10 µM; stronger effect = higher value; submaximal glutamate (EC20) added with thallium.
Sequence of UniProt P70579 (P70579 whole entry, looked up): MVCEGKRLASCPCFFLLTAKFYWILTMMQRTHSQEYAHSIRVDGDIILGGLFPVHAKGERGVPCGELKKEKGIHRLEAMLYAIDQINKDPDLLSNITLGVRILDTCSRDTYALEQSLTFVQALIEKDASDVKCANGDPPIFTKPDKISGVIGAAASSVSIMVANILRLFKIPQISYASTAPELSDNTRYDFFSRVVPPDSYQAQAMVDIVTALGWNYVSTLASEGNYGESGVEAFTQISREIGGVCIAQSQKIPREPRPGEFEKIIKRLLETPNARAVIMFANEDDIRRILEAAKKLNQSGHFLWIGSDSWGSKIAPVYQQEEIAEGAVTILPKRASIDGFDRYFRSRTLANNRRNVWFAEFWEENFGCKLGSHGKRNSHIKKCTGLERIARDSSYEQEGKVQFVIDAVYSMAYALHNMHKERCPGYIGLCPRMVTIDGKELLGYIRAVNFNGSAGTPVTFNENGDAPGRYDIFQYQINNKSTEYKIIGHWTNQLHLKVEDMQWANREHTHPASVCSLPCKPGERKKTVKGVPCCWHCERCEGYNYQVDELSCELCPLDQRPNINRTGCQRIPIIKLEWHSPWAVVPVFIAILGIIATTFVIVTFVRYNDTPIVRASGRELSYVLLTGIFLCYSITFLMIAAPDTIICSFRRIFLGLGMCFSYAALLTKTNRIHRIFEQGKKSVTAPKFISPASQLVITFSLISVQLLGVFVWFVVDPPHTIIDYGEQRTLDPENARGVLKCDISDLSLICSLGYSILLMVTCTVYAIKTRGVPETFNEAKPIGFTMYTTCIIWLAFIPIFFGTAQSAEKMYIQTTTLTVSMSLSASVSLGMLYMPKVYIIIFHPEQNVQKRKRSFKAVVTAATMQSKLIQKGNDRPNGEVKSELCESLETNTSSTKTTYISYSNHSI

| SMILES | z-score |
| --- | --- |
| COc1ccc2c(c1)C(c1ccccc1)=NNC(c1ccco1)=N2 | 0.179 |
| COc1ccc(N2C(=O)CC(Nc3ccc(N4CCOCC4)cc3)C2=O)c(OC)c1 (stereo unspecified) | -0.0673 |
| CCOC(=O)CSc1nnc(CSc2nc3ccccc3c(=O)[nH]2)n1-c1ccccc1 | -0.56 |
| C=CCN(CC=C)S(=O)(=O)c1ccc(NC(=S)NC(=O)/C=C/c2ccc(C)cc2)cc1 | -0.0815 |
| Cc1cc(NC(=O)c2cnn3cccnc23)n(-c2ccccc2)n1 | -0.232 |
| O=C(CSCc1ccc(Cl)cc1)Nc1ccc(S(=O)(=O)N2CCOCC2)cc1 | -1.31 |
| Cc1cccc(NC(=O)c2cccc(NS(=O)(=O)c3ccc(Cl)cc3)c2)c1 | -0.115 |
| C=CCn1c(O)c(CN2CCOCC2)c(C)c(C#N)c1=O | 1.14 |
| CCOC(=O)c1cc(-c2ccccc2)nc2c1c(C)nn2-c1ccccn1 | 0.111 |
| COc1ccc(/C=N\NS(=O)(=O)c2ccc(Br)cc2)cc1COc1ccccc1[N+](=O)[O-] | 0.824 |
| OCCNc1nc(Nc2ccccc2)nc(Nc2ccccc2)n1 | -0.514 |
| O=C(NNc1nc2ccccc2s1)C1CC1 | 0.333 |
| CC(C)NC(=O)Cc1ccc(Br)cc1 | 0.103 |
| CCOC(=O)c1ccc(NCc2ccc(N(C)C)cc2)cc1 | 0.158 |
| CC(C)Oc1ccc(C(CC(=O)NCc2ccco2)c2ccccc2)cc1 (stereo unspecified) | -0.795 |
| CCCCCCCCSc1nnc(-c2ccc(OC)cc2)o1 | -0.194 |
| O=C(COC(=O)CCc1nc2ccccc2s1)Nc1nc(-c2ccccc2)cs1 | -0.225 |
| Cn1cccc1/C=N/n1cnnc1 | -0.0959 |
| CCC(C)NC(=O)CSC1=Nc2ccccc2C2=NC(CC(=O)NCc3ccc(F)cc3)C(=O)N12 (stereo unspecified) | -0.906 |
| Cn1nnnc1SCC(=O)NCc1cccs1 | -0.0581 |
| O=C(CSc1ccc2nnc(-c3ccccc3)n2n1)NCc1ccc2c(c1)OCO2 | 0.0575 |
| COc1ccc(NC(=O)Nc2cc3oc4ccccc4c3cc2OC)cc1 | 0.008 |
| CCc1nnc(NC(=O)CSc2nnc(-c3c[nH]c4ccccc34)n2CC)s1 | active: 5.79 |

| SMILES | z-score |
| --- | --- |
| Cn1c(=O)[nH]c(=O)c2c1nc(N1CCOCC1)n2CCSc1ncccn1 | 0.419 |
| COC(=O)C1CC(c2c(OC)cc(OC)cc2OC)=NO1 (stereo unspecified) | -0.0294 |
| S=C(Nc1cccc(Cl)c1)NC1CCCCC1 | 0.0383 |
| COc1ccc(OC)c(-c2csc(NC(=O)CSc3ccc([N+](=O)[O-])cc3)n2)c1 | -0.149 |
| O=C(O)CSCC(=O)Nc1cccc(C(F)(F)F)c1 | -0.115 |
| COc1ccc(NC(=O)CC2C(=O)OCC3CCCCN32)cc1Cl (stereo unspecified) | -0.0382 |
| Cc1ccc(OCC(=O)N/N=C/c2cc([N+](=O)[O-])ccc2N2CCCCC2)cc1 | 0.028 |
| Cc1[nH]c(C)c2c(=O)n(-c3ccccc3)ncc12 | -0.309 |
| C/C(=N\NC(=O)c1c(Cl)cnn1C)c1ccc(NC(=O)c2ccncc2)cc1 | 0.0454 |
| O=S(=O)(NCc1ccco1)c1cccc2cccnc12 | -0.0649 |
| CCOC(=O)N1CCC(NC(=O)c2ccc(CS(=O)(=O)c3ccccc3C)o2)CC1 | -0.297 |
| CCN(CC)S(=O)(=O)c1cccc2cccnc12 | -0.151 |
| CC(=O)N1CSCC1C(=O)O (stereo unspecified) | 1.62 |
| Cc1ccc(Nc2ncnc3sc(C)c(C)c23)cc1C | 0.147 |
| Cn1c(N)c(C(=O)c2cc(-c3ccccc3)nc3ccccc23)c(=O)n(C)c1=O | -0.768 |
| COCCNc1c(-c2ccc(O)cc2)nc2ccc(Cl)cn12 | -0.32 |
| O=C(CN1C(=O)/C(=C\C=C\c2ccccc2)SC1=S)Nc1ccc(F)cc1 | -0.209 |
| CCOc1ccc(NC(=O)Cc2c(O)c3ccccc3[nH]c2=O)cc1 | -0.313 |
| CN(c1ccc(C(=O)N2CCc3ccccc3C2)cc1)S(C)(=O)=O | -0.179 |
| COc1ccc(NC(=O)CC2COc3ccccc3O2)c(OC)c1 (stereo unspecified) | -0.37 |
| CC(=O)Nc1nnc(SCC(=O)c2ccc3c(c2)Cc2ccccc2-3)s1 | -0.175 |
| O=C(Nc1nccs1)c1cc2c(s1)-c1ccccc1OC2 | -0.242 |
| CCOc1cc(CNCCO)cc(Br)c1OCc1ccc(Cl)cc1 | 0.61 |

| SMILES | z-score |
| --- | --- |
| O=C(CN1C(=O)C2C3C=CC(C3)C2C1=O)NCCN1CCCc2ccccc21 (stereo unspecified) | 0.149 |
| CCOC(=O)c1ccc(NC(=O)C(=O)NCC2CCCO2)cc1 (stereo unspecified) | 0.691 |
| NC(=O)C1CCN(C(=O)c2cc3n(n2)C(C(F)(F)F)CC(c2ccco2)N3)CC1 (stereo unspecified) | -0.428 |
| Cn1c(=O)c2c(nc(NC3CCCCC3)n2CC(=O)C23CC4CC(CC(C4)C2)C3)n(C)c1=O | -0.778 |
| CN(C)c1ccc(/C=C/C(=O)c2ccccc2)cc1[N+](=O)[O-] | -0.207 |
| CCC(=O)Nc1nc2ccccc2n1CCN1CCOCC1 | -0.386 |
| Cc1ccc(C(=O)CSc2nnnn2C(C)C)c(C)c1 | -0.197 |
| CCCc1nc(NCC2CCCO2)c2nnn(Cc3ccccc3)c2n1 (stereo unspecified) | -0.932 |
| CC(NC(=O)COC(=O)CC(c1ccccc1)c1ccccc1)c1ccccc1 (stereo unspecified) | -0.46 |
| Cc1ccc(S(=O)(=O)N2CCN(CCO)CC2)cc1-c1nnc2c3ccccc3c(C)nn12 | -0.156 |
| O=C(c1ccc2snnc2c1)N1CCSCC1 | -0.464 |
| CCOc1ccc(S(=O)(=O)Nc2ccccc2C(=O)Nc2ccccc2N2CCOCC2)cc1 | 0.13 |
| Cc1cc(Oc2nnnn2-c2ccccc2)ccc1Cl | -0.263 |
| CCOC(=O)C(=O)c1csc(NC(=O)COc2ccc(N(C)S(=O)(=O)c3ccc(F)cc3)cc2)n1 | -0.357 |
| Cc1ccc(-c2nc3ccccc3[nH]2)cc1NC(=O)c1ccco1 | -1.14 |
| Cc1cc(SCc2cc(=O)[nH]c3ccccc23)nc2ccccc12 | 0.198 |
| FC(F)(F)c1cc(-c2ccco2)nc(NCc2cccnc2)n1 | -0.622 |
| CCCCN(C)CCCNC(=O)c1cccc(N2CCCC2=O)c1 | 0.34 |
| O=C(Oc1ccccc1)c1c(Cl)cccc1P(=O)(O)O | -0.266 |
| Cc1ccc2nc3c(cc(C(=O)NCC4CCCO4)n3C)c(=O)n2c1 (stereo unspecified) | 0.216 |
| CCOc1ccc(N(C(C)=O)c2nc(C)cc(C)c2C#N)cc1 | 0.0885 |
| Cc1ccc(S(=O)(=O)N(CC(=O)N2CCC(C)CC2)c2cccc(C)c2)cc1 | -0.667 |
| Cc1ccc(C)c(SCC(=O)OCC(=O)Nc2ccc(S(=O)(=O)N3CCOCC3)cc2)c1 | -0.283 |

| SMILES | z-score |
| --- | --- |
| O=C(Cn1nc(-c2ccccc2)c2ccccc2c1=O)Nc1cccnc1 | -0.099 |
| CN(c1ccc(OCC(=O)OCC(=O)Nc2ccc(F)cc2)cc1)S(=O)(=O)c1ccc(Cl)cc1 | -0.231 |
| Cc1cc2c(=O)[nH]c(Cc3ccccc3)nc2s1 | -0.0665 |
| CCOC(=O)c1c(C)c(C(=O)NCCN2CCOCC2)c(C)n1C | 0.127 |
| COc1ccccc1C(=O)Nc1cccc(N(C)S(C)(=O)=O)c1 | -0.0215 |
| CCn1nc(C)c(/C=C/C(=O)Nc2ccc(C)cc2C)c1C | 1.11 |
| Cc1cccc(C(=O)OCC(=O)Nc2nccs2)c1 | 0.0368 |
| Cc1ccc[n+](CC(=O)Nc2ccc([N+](=O)[O-])cc2Cl)c1 | 0.135 |
| O=S(=O)(c1ccc(Cl)cc1)c1ccccn1 | 0.41 |
| c1ccc2oc(-c3ccc4nc[nH]c4c3)nc2c1 | -0.407 |
| CC(C)C(=O)Nc1ccc2c(c1)nc(CCN1CCN(C)CC1)n2C | 1.4 |
| O=C(O)c1ccc(F)c(S(=O)(=O)Nc2ccccc2Cl)c1 | -0.11 |
| O=C(Nc1cc(C(F)(F)F)ccc1N1CCOCC1)c1ccc[n+]([O-])c1 | -0.118 |
| NC(=O)CN1CCCN(S(=O)(=O)c2ccc(Br)cc2)CC1 | 0.489 |
| O=C1CC(c2ccc(S(=O)(=O)NCc3ccncc3)cc2)CN1 (stereo unspecified) | -0.126 |
| OC(CNCC1CCCO1)Cn1c2ccc(Cl)cc2c2cc(Cl)ccc21 (stereo unspecified) | 0.381 |
| CC(CN(C)Cc1ccccc1)OC(=O)c1cccs1 (stereo unspecified) | 0.0355 |
| COc1ccccc1-c1cc(C(=O)N/N=C/c2sccc2C)c2ccccc2n1 | 1.65 |
| CC(Sc1nc(-c2ccccc2)cs1)C(=O)Nc1ccc(Cl)cn1 (stereo unspecified) | 0.126 |
| Cc1csc(-c2cnn(-c3ccccc3)c2NC(=O)c2cccc(F)c2)n1 | 0.324 |
| COC(=O)C1=CN(C)C=C(C(=O)OC)C1c1ccccc1Cl | -0.0286 |
| O=C(CSc1nnc(NC2CCCCC2)s1)NC1CCS(=O)(=O)C1 (stereo unspecified) | 1.33 |
| COc1ccc(NS(=O)(=O)c2cccc3cccnc23)cc1 | -0.41 |

| SMILES | z-score |
| --- | --- |
| COc1ccc(N=NC2=C(O)CC(C)(C)CC2=O)c(OC)c1 | -0.0445 |
| Cn1ncc(Br)c1C(=O)N/N=C/c1ccc(OS(=O)(=O)c2ccccc2)cc1 | -0.215 |
| CC1=C(C(=O)Nc2ccccc2)C(c2cccs2)n2nnnc2N1 (stereo unspecified) | -0.948 |
| Clc1ccc(-n2cccc2/C=N/n2cnnc2)cc1 | -0.373 |
| COc1cc2c(cc1OC)C1(Nc3c-2c(Cc2ccccc2)nn3-c2ccccc2)C(=O)Nc2ccccc21 (stereo unspecified) | -0.11 |
| O=C(Nc1nc(-c2ccccc2)cs1)c1ccc(N2CCOCC2)c([N+](=O)[O-])c1 | -0.0442 |
| Fc1ccccc1NC(=S)Nc1ccc(Br)cc1 | 0.657 |
| O=c1[nH]c(CSc2nc(-c3ccc(F)cc3)cs2)nc2ccccc12 | -0.441 |
| CCOc1ccc(N2CC(C(=O)NCCC3=CCCCC3)CC2=O)cc1 (stereo unspecified) | -1.42 |
| COC(=O)C1=C(O)/C(=C\c2sccc2C)N=C1C | -0.319 |
| O=C(Cn1c(/C=C/c2ccccc2)nc2ccccc21)Nc1ccc(F)cc1 | -0.464 |
| CCN(c1ccccc1)S(=O)(=O)c1ccc(Cl)c(C(=O)NCCc2ccc(OC)cc2)c1 | -0.46 |
| COc1cc(C(=O)Nc2ccc(Cl)c(C(F)(F)F)c2)cc(OC)c1OC | -0.147 |
| O=C(O)/C(=C\c1ccc(Br)cc1)c1ccc(S(=O)(=O)N2CCCCC2)s1 | -0.862 |
| COc1ccc(-n2c(SCC(=O)NCc3ccco3)nc3c([nH]c4ccccc43)c2=O)cc1 | 0.0265 |
| CCC(=O)Nc1ccc(C(=O)Nc2cccnc2)cc1 | 0.103 |
| c1ccc(CN2CCN(c3nc(NCc4ccco4)c4ccccc4n3)CC2)cc1 | 1.88 |
| CCCCNC(=O)c1cc2n(n1)C(C(F)(F)F)CC(c1ccccc1)N2 (stereo unspecified) | 0.568 |
| Cc1ccc(S(=O)(=O)N2CCOCC2)c(C)c1NS(C)(=O)=O | -0.124 |

— PubChem BioAssay AID488969 (Vanderbilt High Throughput Screening Facility, 2010)
